Screen size: about 310,000 compounds; about 14,000 (4.5%) showed an effect of 50% or more. The effect is printed as a negative number. Some of the results follow. Where a SMILES comes first, the peptide text is derived from it. The star is where a group is joined. Cbz = O=C(OCc1ccccc1)*
These compounds were tested against human ether-à-go-go-related gene (hERG) potassium channel (human, UniProt Q12809) (assay: primary screen, population patch clamp on CHO cells stably expressing hERG).
human ether-à-go-go-related gene (hERG) potassium channel, sequence (Q12809 whole entry, looked up): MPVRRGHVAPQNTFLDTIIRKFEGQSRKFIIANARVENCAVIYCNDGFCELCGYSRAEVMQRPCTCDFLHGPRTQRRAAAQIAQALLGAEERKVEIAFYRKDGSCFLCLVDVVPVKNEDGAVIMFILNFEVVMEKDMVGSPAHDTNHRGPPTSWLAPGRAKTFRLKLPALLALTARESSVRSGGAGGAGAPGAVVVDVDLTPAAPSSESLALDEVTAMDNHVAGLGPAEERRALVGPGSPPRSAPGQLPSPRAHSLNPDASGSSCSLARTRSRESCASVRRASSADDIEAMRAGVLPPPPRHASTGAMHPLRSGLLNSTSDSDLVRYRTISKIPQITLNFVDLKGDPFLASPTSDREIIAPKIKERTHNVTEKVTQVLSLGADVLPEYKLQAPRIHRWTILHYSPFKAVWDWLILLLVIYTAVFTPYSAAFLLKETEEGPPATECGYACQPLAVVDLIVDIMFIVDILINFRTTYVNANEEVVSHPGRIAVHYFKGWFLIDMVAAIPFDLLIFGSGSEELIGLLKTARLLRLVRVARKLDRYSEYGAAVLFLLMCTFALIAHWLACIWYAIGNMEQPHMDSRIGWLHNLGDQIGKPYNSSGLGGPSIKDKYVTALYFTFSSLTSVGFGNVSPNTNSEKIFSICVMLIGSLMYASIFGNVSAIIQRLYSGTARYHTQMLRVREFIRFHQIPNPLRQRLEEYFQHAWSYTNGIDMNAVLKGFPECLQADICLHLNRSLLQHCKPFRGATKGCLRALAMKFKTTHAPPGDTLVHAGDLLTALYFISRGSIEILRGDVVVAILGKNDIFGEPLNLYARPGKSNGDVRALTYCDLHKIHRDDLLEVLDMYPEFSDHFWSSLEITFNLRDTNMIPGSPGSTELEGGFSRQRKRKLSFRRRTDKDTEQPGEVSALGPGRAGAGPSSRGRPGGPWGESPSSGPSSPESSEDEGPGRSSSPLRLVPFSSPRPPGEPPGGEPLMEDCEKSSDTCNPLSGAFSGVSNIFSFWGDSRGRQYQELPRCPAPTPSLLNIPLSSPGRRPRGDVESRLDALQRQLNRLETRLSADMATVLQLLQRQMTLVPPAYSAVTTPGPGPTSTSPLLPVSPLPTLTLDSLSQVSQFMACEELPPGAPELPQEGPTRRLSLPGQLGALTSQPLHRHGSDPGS
For O=C(/C=C/c1cccc(C(F)(F)F)c1)N1CCN(c2ccccn2)CC1, the “hERG current change (%, negative = inhibition) at 10uM” value was 1.31%.
For COc1ccc(C(C)=O)cc1CN1C(=O)NC(CC(C)C)C1=O (stereo not shown), the “hERG current change (%, negative = inhibition) at 10uM” value was 0.847%.
For COC(=O)c1cccc(N2CCCC2=O)c1, the “hERG current change (%, negative = inhibition) at 10uM” value was 15.9%.
With CCOC(=O)C1(CCc2ccccc2)CCN(C(=O)Cc2nonc2C)CC1 the “hERG current change (%, negative = inhibition) at 10uM” value was -21.4%.
For CSCCCNC(=S)Nc1cccc(S(=O)(=O)NC2=NCCC2)c1, the “hERG current change (%, negative = inhibition) at 10uM” value was 32.8%.
O=C(c1ccc2c(c1)OCO2)N1CCC2(CC1)Oc1ccc(F)cc1C(=O)C21CC(c2ccc(Cl)cc2)=NO1 (stereo not shown) was tested, and the “hERG current change (%, negative = inhibition) at 10uM” value was 12.2%.
For Cc1cccc(OCC(=O)NCc2nnc3ccc(C(F)(F)F)cn23)c1C, the “hERG current change (%, negative = inhibition) at 10uM” value was -4.38%.
COc1ccc(C)cc1Nc1nc(N)c2cc(OC)c(OC)cc2n1 was tested, and the “hERG current change (%, negative = inhibition) at 10uM” value was -38.8%.
With CCOc1ccc2oc(C(=O)NC3CCN(Cc4ccccc4)CC3)c(C)c2c1.Cl the “hERG current change (%, negative = inhibition) at 10uM” value was -15.1%.
In the case of CC(=O)N1CCc2cc(C(=O)CN3CCN(c4ccccc4F)CC3)ccc21, the “hERG current change (%, negative = inhibition) at 10uM” value was -3.15%.
With O=C(CSc1nc2ccccc2c(=O)n1-c1ccc(F)cc1F)Nc1ccc(N2CCOCC2)cc1 the “hERG current change (%, negative = inhibition) at 10uM” value was -31.7%.
With COc1ccc(C(CCN)c2ccc3c(c2)OCO3)cc1 (stereo not shown) the “hERG current change (%, negative = inhibition) at 10uM” value was 1.93%.
CCN1C(=NCCCCO)N[C@@H](c2cccc(F)c2)C(C(=O)OC)=C1C was tested, and the “hERG current change (%, negative = inhibition) at 10uM” value was 6.82%.
In the case of Cc1nc2ccc(-c3nc4ccccc4[nH]3)cc2[nH]1, the “hERG current change (%, negative = inhibition) at 10uM” value was 7.78%.
For O=C(O)c1ccccc1C(=O)Nc1ccc(Br)c(C(F)(F)F)c1, the “hERG current change (%, negative = inhibition) at 10uM” value was -70.6%.
With CN1CCN(CC#CCC(O)(c2ccccc2)c2ccccc2)CC1.Cl the “hERG current change (%, negative = inhibition) at 10uM” value was 13.2%.
With CC(CC(=O)Nc1ccc(F)cc1F)S(=O)(=O)c1ccc2c(c1)NC(=O)CO2 (stereo not shown) the “hERG current change (%, negative = inhibition) at 10uM” value was -9%.
In the case of Cc1ccccc1SC1CCN(Cc2nc(C3CC3)no2)CC1, the “hERG current change (%, negative = inhibition) at 10uM” value was -14.2%.
In the case of CC(C)C(NC(=O)C(Cc1ccccc1)NC(=O)OCc1ccccc1)C(=O)O (stereo not drawn) (Cbz-Phe-Val-OH; configuration not given here), the “hERG current change (%, negative = inhibition) at 10uM” value was 20.1%.
For Cc1nn(C(C)C(=O)NCc2ccccc2F)c(=O)c2nn(-c3ccccc3)c(C)c12 (stereo not shown), the “hERG current change (%, negative = inhibition) at 10uM” value was 13.8%.
CCOC(=O)Cc1csc(NC(=O)c2cnc3scc(C)n3c2=O)n1 was tested, and the “hERG current change (%, negative = inhibition) at 10uM” value was 10.4%.
In the case of C=C1C[C@]23C[C@@]1(O)CC[C@H]2[C@@]12C=C[C@H](O)[C@@](C)(C(=O)O1)[C@H]2[C@@H]3C(=O)O, the “hERG current change (%, negative = inhibition) at 10uM” value was 9.21%.
With Cc1cc(=O)oc2ccc(OC(=O)c3cccc(S(=O)(=O)N4CCOCC4)c3)cc12 the “hERG current change (%, negative = inhibition) at 10uM” value was -70.5%.
In the case of Cn1c(N2CCOCC2)cc(=O)n(C)c1=O, the “hERG current change (%, negative = inhibition) at 10uM” value was -18.2%.
O=C(NCC(c1cccnc1)N1CCN(c2ccc(F)cc2)CC1)c1ccc2c(c1)OCO2 (stereo not shown) was tested, and the “hERG current change (%, negative = inhibition) at 10uM” value was -65.3%.
In the case of Cc1ccc(S(=O)(=O)N2CCC(C(=O)OC(C)C(=O)N(C)c3ccccc3)CC2)cc1C (stereo not shown), the “hERG current change (%, negative = inhibition) at 10uM” value was -25.7%.
With CCOc1ccc(/C=N/NC(=S)NC2CC3C=CC2C3)cc1 (stereo not shown) the “hERG current change (%, negative = inhibition) at 10uM” value was 19.5%.
C(=N\Nc1nc(-c2ccccc2)cs1)/c1cccs1 was tested, and the “hERG current change (%, negative = inhibition) at 10uM” value was 18.5%.
In the case of COc1cc(CNCCN2CCOCC2)ccc1OCc1ccc(Cl)cc1Cl.Cl, the “hERG current change (%, negative = inhibition) at 10uM” value was -69.7%.
In the case of O=C(c1cccs1)N1CCC(c2nc3c(nnn3Cc3c(Cl)cccc3Cl)c(=O)[nH]2)CC1, the “hERG current change (%, negative = inhibition) at 10uM” value was -3.47%.
In the case of CCN1CCN(C(=O)c2cn(CCOC)c(=O)c3c2c2ccccc2n3C)CC1, the “hERG current change (%, negative = inhibition) at 10uM” value was 12%.
For COc1ccccc1NC(=O)c1ccc(NC(=O)CN2CCCC2)cc1, the “hERG current change (%, negative = inhibition) at 10uM” value was -34.2%.
O=C(NCCC1=CCCCC1)C(=O)NCC1OCCCN1S(=O)(=O)c1cc(F)ccc1F (stereo not shown) was tested, and the “hERG current change (%, negative = inhibition) at 10uM” value was -10.8%.
Cc1ccc(F)cc1NC(=O)CSCc1nc2sc(C)c(C)c2c(=O)[nH]1 was tested, and the “hERG current change (%, negative = inhibition) at 10uM” value was 2.49%.
C/C(=N\NC(=O)CNc1cccc(C(F)(F)F)c1)c1cccc(Br)c1 was tested, and the “hERG current change (%, negative = inhibition) at 10uM” value was 0.604%.
In the case of Cn1cccc1CC(=O)NNC(=S)Nc1ccccc1Cl, the “hERG current change (%, negative = inhibition) at 10uM” value was 11.6%.
For CCc1cc2c3c(c(=O)oc2cc1OC(C)C(=O)O)CCCC3 (stereo not shown), the “hERG current change (%, negative = inhibition) at 10uM” value was 12.6%.
In the case of COC(=O)c1cc(S(=O)(=O)NCc2ccccc2)cn1C, the “hERG current change (%, negative = inhibition) at 10uM” value was 8.07%.
With COC(=O)c1ccc(NC(=O)c2ccc3c(c2)C(=O)N(Cc2cccnc2)C3=O)cc1 the “hERG current change (%, negative = inhibition) at 10uM” value was -23.2%.
In the case of Cc1ccc([N+](=O)[O-])cc1NC(=O)CSc1nnc(C)n1CC1CCCO1 (stereo not shown), the “hERG current change (%, negative = inhibition) at 10uM” value was -14.6%.
For COC(=O)C1(C(O)C(=O)c2ccc(C)cc2C)CCCCC1 (stereo not shown), the “hERG current change (%, negative = inhibition) at 10uM” value was 2.87%.
O=C(N[C@@H](Cc1ccccc1)c1nc2ccccc2[nH]1)c1cc([N+](=O)[O-])ccc1Cl was tested, and the “hERG current change (%, negative = inhibition) at 10uM” value was -28%.
In the case of O=S(=O)(c1ccccc1)N1N=C(c2ccccc2)CC1c1ccccc1 (stereo not shown), the “hERG current change (%, negative = inhibition) at 10uM” value was -6.01%.

From paper PMC4336329 (PLoS ONE, 2015)
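Note: peak tail current of the secondary pulse compared with the same well before compound.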
